# Laboratory results reported in the supplement of paper PMC8728848.
# The list shows a part of the results.
# B1: Strep tagII-anxA1 (Homo sapiens), P04083 (protein)
# chain: MAMVSEFLKQAWFIENEEQEYVQTVKSSKGGPGSAVSPYPTFNPSSDVAALHKAIMVKGVDEATIIDILTKRNNAQRQQIKAAYLQETGKPLDETLKKALTGHLEEVVLALLKTPAQFDADELRAAMKGLGTDEDTLIEILASRTNKEIRDINRVYREELKRDLAKDITSDTSGDFRNALLSLAKGDRSEDFGVNEDLADSDARALYEAGERRKGTDVNVFNTILTTRSYPQLRRVFQKYTKYSKHDMNKVLDLELKGDIEKCLTAIVKCATSKPAFFAEKLHQAMKGVGTRHKALIRIMVSRSEIDMNDIKAFYQKMYGISLCQAILDETKGDYEKILVALCGGN
# Experiments:
# Experiment in all cases: glycan array binding signal (z-score within array); higher = stronger binding
# Settings in all cases: glycan notation: IUPAC condensed, linker removed
# [1] = molecular target: Fuc(a1-2)Gal
# In short: (§1)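 Columns mapping to the same glycan were averaged after glycan names were converted to IUPAC-condensed notation. The data come from 3228 arrays in the Consortium for Functional Glycomics database, limited to those with an available protein sequence. Binding is reported as a within-array Z-score averaged across arrays of one protein sequence and across linkers.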
# [2] = molecular target: Fuc(a1-2)Gal(b1-3)GalNAc
# In short: as §1
# [3] = molecular target: Fuc(a1-2)Gal(b1-3)GalNAc(a1-3)[Fuc(a1-2)]Gal(b1-4)Glc
# In short: as §1
# [4] = molecular target: Fuc(a1-2)Gal(b1-3)GalNAc(a1-3)[Fuc(a1-2)]Gal(b1-4)GlcNAc
# In short: as §1
# [5] = molecular target: Fuc(a1-2)Gal(b1-3)GalNAc(b1-3)Gal
# In short: as §1
# [6] = molecular target: Fuc(a1-2)Gal(b1-3)GalNAc(b1-3)Gal(a1-4)Gal(b1-4)Glc
# In short: as §1
# [7] = molecular target: Fuc(a1-2)Gal(b1-3)GalNAc(b1-4)[Neu5Ac(a2-3)]Gal(b1-4)Glc
# In short: as §1
# [8] = molecular target: Fuc(a1-2)Gal(b1-3)GlcNAc
# In short: as §1
# [9] = molecular target: Fuc(a1-2)Gal(b1-3)GlcNAc(b1-2)Man(a1-3)[Fuc(a1-2)Gal(b1-3)GlcNAc(b1-2)Man(a1-6)]Man(b1-4)GlcNAc(b1-4)GlcNAc
# In short: as §1
# [10] = molecular target: Fuc(a1-2)Gal(b1-3)GlcNAc(b1-2)Man(a1-3)[Fuc(a1-2)Gal(b1-3)GlcNAc(b1-2)Man(a1-6)]Man(b1-4)GlcNAc(b1-4)[Fuc(a1-6)]GlcNAc
# In short: as §1
# [11] = molecular target: Fuc(a1-2)Gal(b1-3)GlcNAc(b1-3)Gal(b1-4)Glc
# In short: as §1
# [12] = molecular target: Fuc(a1-2)Gal(b1-3)GlcNAc(b1-3)GalNAc
# In short: as §1
# [13] = molecular target: Fuc(a1-2)Gal(b1-3)GlcNAc(b1-3)[Fuc(a1-2)Gal(b1-3)GlcNAc(b1-6)]GalNAc
# In short: as §1
# [14] = molecular target: Fuc(a1-2)Gal(b1-3)GlcNAc(b1-3)[Fuc(a1-3)[Gal(b1-4)]GlcNAc(b1-6)]Gal(b1-4)Glc
# In short: as §1
# [15] = molecular target: Fuc(a1-2)Gal(b1-3)GlcNAc(b1-3)[Gal(b1-4)GlcNAc(b1-6)]Gal(b1-4)Glc
# In short: as §1
# [16] = molecular target: Fuc(a1-2)Gal(b1-3)GlcNAc(b1-3)[Neu5Ac(a2-6)Gal(b1-4)GlcNAc(b1-6)]Gal(b1-4)Glc
# In short: as §1
# [17] = molecular target: Fuc(a1-2)Gal(b1-3)GlcNAc6S
# In short: as §1
# [18] = molecular target: Fuc(a1-2)Gal(b1-3)[Fuc(a1-4)]GlcNAc
# In short: as §1
# [19] = molecular target: Fuc(a1-2)Gal(b1-3)[Fuc(a1-4)]GlcNAc(b1-2)Man(a1-3)[Fuc(a1-2)Gal(b1-3)[Fuc(a1-4)]GlcNAc(b1-2)Man(a1-6)]Man(b1-4)GlcNAc(b1-4)GlcNAc
# In short: as §1
# [20] = molecular target: Fuc(a1-2)Gal(b1-3)[Fuc(a1-4)]GlcNAc(b1-2)Man(a1-6)[Fuc(a1-2)Gal(b1-3)[Fuc(a1-4)]GlcNAc(b1-2)Man(a1-3)]Man(b1-4)GlcNAc(b1-4)[Fuc(a1-6)]GlcNAc
# In short: as §1
# [21] = molecular target: Fuc(a1-2)Gal(b1-3)[Fuc(a1-4)]GlcNAc(b1-3)[Fuc(a1-3)[Gal(b1-4)]GlcNAc(b1-6)]Gal(b1-4)Glc
# In short: as §1
# [22] = molecular target: Fuc(a1-2)Gal(b1-3)[Fuc(a1-4)]GlcNAc(b1-3)[Gal(b1-4)GlcNAc(b1-6)]Gal(b1-4)Glc
# In short: as §1
# [23] = molecular target: Fuc(a1-2)Gal(b1-4)Glc
# In short: as §1
# [24] = molecular target: Fuc(a1-2)Gal(b1-4)Glc6S
# In short: as §1
# [25] = molecular target: Fuc(a1-2)Gal(b1-4)GlcNAc
# In short: as §1
# [26] = molecular target: Fuc(a1-2)Gal(b1-4)GlcNAc(b1-2)Man
# In short: as §1
# [27] = molecular target: Fuc(a1-2)Gal(b1-4)GlcNAc(b1-2)Man(a1-3)[Fuc(a1-2)Gal(b1-4)GlcNAc(b1-2)Man(a1-6)]Man(b1-4)GlcNAc(b1-4)GlcNAc
# In short: as §1
# [28] = molecular target: Fuc(a1-2)Gal(b1-4)GlcNAc(b1-2)Man(a1-3)[Fuc(a1-2)Gal(b1-4)GlcNAc(b1-2)Man(a1-6)]Man(b1-4)GlcNAc(b1-4)[Fuc(a1-6)]GlcNAc
# In short: as §1
# [29] = molecular target: Fuc(a1-2)Gal(b1-4)GlcNAc(b1-2)[Fuc(a1-2)Gal(b1-4)GlcNAc(b1-4)]Man(a1-3)[Fuc(a1-2)Gal(b1-4)GlcNAc(b1-2)Man(a1-6)]Man(b1-4)GlcNAc(b1-4)GlcNAc
# In short: as §1
# [30] = molecular target: Fuc(a1-2)Gal(b1-4)GlcNAc(b1-3)Gal(b1-4)GlcNAc
# In short: as §1
# [31] = molecular target: Fuc(a1-2)Gal(b1-4)GlcNAc(b1-3)Gal(b1-4)GlcNAc(b1-3)Gal(b1-4)GlcNAc
# In short: as §1
# [32] = molecular target: Fuc(a1-2)Gal(b1-4)GlcNAc(b1-3)GalNAc
# In short: as §1
# [33] = molecular target: Fuc(a1-2)Gal(b1-4)GlcNAc(b1-3)[Fuc(a1-2)Gal(b1-4)GlcNAc(b1-6)]GalNAc
# In short: as §1
# [34] = molecular target: Fuc(a1-2)Gal(b1-4)GlcNAc(b1-6)GalNAc
# In short: as §1
# [35] = molecular target: Fuc(a1-2)Gal(b1-4)GlcNAc6S
# In short: as §1
# [36] = molecular target: Fuc(a1-2)Gal(b1-4)[Fuc(a1-3)]GlcNAc
# In short: as §1
# [37] = molecular target: Fuc(a1-2)Gal(b1-4)[Fuc(a1-3)]GlcNAc(b1-2)Man(a1-3)[Fuc(a1-2)Gal(b1-4)[Fuc(a1-3)]GlcNAc(b1-2)Man(a1-6)]Man(b1-4)GlcNAc(b1-4)GlcNAc
# In short: as §1
binder,measurement,setting,value
B1,glycan array binding signal (z-score),[1],-0.378
same,glycan array binding signal (z-score),[2],0.017
same,glycan array binding signal (z-score),[3],-0.705
same,glycan array binding signal (z-score),[4],-0.617
same,glycan array binding signal (z-score),[5],-0.541
same,glycan array binding signal (z-score),[6],-0.384
same,glycan array binding signal (z-score),[7],-0.694
same,glycan array binding signal (z-score),[8],-0.573
same,glycan array binding signal (z-score),[9],1.89
same,glycan array binding signal (z-score),[10],0.314
same,glycan array binding signal (z-score),[11],-0.573
same,glycan array binding signal (z-score),[12],-0.698
same,glycan array binding signal (z-score),[13],0.189
same,glycan array binding signal (z-score),[14],-0.635
same,glycan array binding signal (z-score),[15],-0.733
same,glycan array binding signal (z-score),[16],1.32
same,glycan array binding signal (z-score),[17],-0.034
same,glycan array binding signal (z-score),[18],5.05
same,glycan array binding signal (z-score),[19],10.7
same,glycan array binding signal (z-score),[20],3.12
same,glycan array binding signal (z-score),[21],-0.552
same,glycan array binding signal (z-score),[22],0.508
same,glycan array binding signal (z-score),[23],-0.086
same,glycan array binding signal (z-score),[24],0.094
same,glycan array binding signal (z-score),[25],-0.474
same,glycan array binding signal (z-score),[26],1.62
same,glycan array binding signal (z-score),[27],1.03
same,glycan array binding signal (z-score),[28],1.07
same,glycan array binding signal (z-score),[29],1.64
same,glycan array binding signal (z-score),[30],-0.18
same,glycan array binding signal (z-score),[31],-0.744
same,glycan array binding signal (z-score),[32],0.297
same,glycan array binding signal (z-score),[33],2.61
same,glycan array binding signal (z-score),[34],1.01
same,glycan array binding signal (z-score),[35],-0.035
same,glycan array binding signal (z-score),[36],-0.35
same,glycan array binding signal (z-score),[37],1.91
